Data as given in the supplement of paper PMC8728848.
Some of the results follow.

Tests used:
Experiment in all cases: glycan array binding signal (z-score within array); higher = stronger binding
Conditions in all cases: glycan notation: IUPAC condensed, linker removed
Fuc(a1-2)Gal = biological target: Fuc(a1-2)Gal
Outline: (§1)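 The binding signal is a Z-score computed within each array. Data were drawn from 3228 arrays in the Consortium for Functional Glycomics database, restricted to those with a known protein sequence. Scores were averaged over arrays of the same protein sequence at different concentrations or buffers, and over linkers, and negative values can be taken as non-binding.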

Fuc(a1-2)Gal(b1-3)GalNAc = biological target: Fuc(a1-2)Gal(b1-3)GalNAc
Outline: as §1

[1] = biological target: Fuc(a1-2)Gal(b1-3)GalNAc(a1-3)[Fuc(a1-2)]Gal(b1-4)Glc
Outline: as §1

[2] = biological target: Fuc(a1-2)Gal(b1-3)GalNAc(a1-3)[Fuc(a1-2)]Gal(b1-4)GlcNAc
Outline: as §1

[3] = biological target: Fuc(a1-2)Gal(b1-3)GalNAc(b1-3)Gal
Outline: as §1

[4] = biological target: Fuc(a1-2)Gal(b1-3)GalNAc(b1-3)Gal(a1-4)Gal(b1-4)Glc
Outline: as §1

[5] = biological target: Fuc(a1-2)Gal(b1-3)GalNAc(b1-3)Gal(b1-4)Glc
Outline: as §1

[6] = biological target: Fuc(a1-2)Gal(b1-3)GalNAc(b1-4)[Neu5Ac(a2-3)]Gal(b1-4)Glc
Outline: as §1

Fuc(a1-2)Gal(b1-3)GlcNAc = biological target: Fuc(a1-2)Gal(b1-3)GlcNAc
Outline: as §1

[7] = biological target: Fuc(a1-2)Gal(b1-3)GlcNAc(b1-2)Man(a1-3)[Fuc(a1-2)Gal(b1-3)GlcNAc(b1-2)Man(a1-6)]Man(b1-4)GlcNAc(b1-4)GlcNAc
Outline: as §1

[8] = biological target: Fuc(a1-2)Gal(b1-3)GlcNAc(b1-2)Man(a1-3)[Fuc(a1-2)Gal(b1-3)GlcNAc(b1-2)Man(a1-6)]Man(b1-4)GlcNAc(b1-4)[Fuc(a1-6)]GlcNAc
Outline: as §1

[9] = biological target: Fuc(a1-2)Gal(b1-3)GlcNAc(b1-3)Gal(b1-4)Glc
Outline: as §1

[10] = biological target: Fuc(a1-2)Gal(b1-3)GlcNAc(b1-3)GalNAc
Outline: as §1

[11] = biological target: Fuc(a1-2)Gal(b1-3)GlcNAc(b1-3)[Fuc(a1-2)Gal(b1-3)GlcNAc(b1-6)]GalNAc
Outline: as §1

[12] = biological target: Fuc(a1-2)Gal(b1-3)GlcNAc(b1-3)[Gal(b1-4)GlcNAc(b1-6)]Gal(b1-4)Glc
Outline: as §1

[13] = biological target: Fuc(a1-2)Gal(b1-3)GlcNAc(b1-3)[Neu5Ac(a2-6)Gal(b1-4)GlcNAc(b1-6)]Gal(b1-4)Glc
Outline: as §1

[14] = biological target: Fuc(a1-2)Gal(b1-3)GlcNAc6S
Outline: as §1

[15] = biological target: Fuc(a1-2)Gal(b1-3)[Fuc(a1-4)]GlcNAc
Outline: as §1

[16] = biological target: Fuc(a1-2)Gal(b1-3)[Fuc(a1-4)]GlcNAc(b1-2)Man(a1-3)[Fuc(a1-2)Gal(b1-3)[Fuc(a1-4)]GlcNAc(b1-2)Man(a1-3)]Man(b1-4)GlcNAc(b1-4)GlcNAc
Outline: as §1

[17] = biological target: Fuc(a1-2)Gal(b1-3)[Fuc(a1-4)]GlcNAc(b1-2)Man(a1-3)[Fuc(a1-2)Gal(b1-3)[Fuc(a1-4)]GlcNAc(b1-2)Man(a1-6)]Man(b1-4)GlcNAc(b1-4)[Fuc(a1-6)]GlcNAc(b1-4)[Fuc(a1-6)]GlcNAc
Outline: as §1

[18] = biological target: Fuc(a1-2)Gal(b1-3)[Fuc(a1-4)]GlcNAc(b1-3)[Fuc(a1-3)[Gal(b1-4)]GlcNAc(b1-6)]Gal(b1-4)Glc
Outline: as §1

[19] = biological target: Fuc(a1-2)Gal(b1-3)[Fuc(a1-4)]GlcNAc(b1-3)[Gal(b1-4)GlcNAc(b1-6)]Gal(b1-4)Glc
Outline: as §1

[20] = biological target: Fuc(a1-2)Gal(b1-4)Fuc(a1-3)]GlcNAc(b1-2)Man(a1-3)[Fuc(a1-2)Gal(b1-4)[Fuc(a1-3)]GlcNAc(b1-2)Man(a1-6)]Man(b1-4)GlcNAc(b1-4)GlcNAc
Outline: as §1

Fuc(a1-2)Gal(b1-4)Glc = biological target: Fuc(a1-2)Gal(b1-4)Glc
Outline: as §1

Fuc(a1-2)Gal(b1-4)Glc6S = biological target: Fuc(a1-2)Gal(b1-4)Glc6S
Outline: as §1

Fuc(a1-2)Gal(b1-4)GlcNAc = biological target: Fuc(a1-2)Gal(b1-4)GlcNAc
Outline: as §1

[21] = biological target: Fuc(a1-2)Gal(b1-4)GlcNAc(b1-2)Man
Outline: as §1

[22] = biological target: Fuc(a1-2)Gal(b1-4)GlcNAc(b1-2)Man(a1-3)[Fuc(a1-2)Gal(b1-4)GlcNAc(b1-2)Man(a1-6)]Man(b1-4)GlcNAc(b1-4)GlcNAc
Outline: as §1

[23] = biological target: Fuc(a1-2)Gal(b1-4)GlcNAc(b1-2)Man(a1-3)[Fuc(a1-2)Gal(b1-4)GlcNAc(b1-2)Man(a1-6)]Man(b1-4)GlcNAc(b1-4)[Fuc(a1-6)]GlcNAc
Outline: as §1

[24] = biological target: Fuc(a1-2)Gal(b1-4)GlcNAc(b1-2)[Fuc(a1-2)Gal(b1-4)GlcNAc(b1-4)]Man(a1-3)[Fuc(a1-2)Gal(b1-4)GlcNAc(b1-2)Man(a1-6)]Man(b1-4)GlcNAc(b1-4)GlcNAc
Outline: as §1

[25] = biological target: Fuc(a1-2)Gal(b1-4)GlcNAc(b1-3)Gal(b1-4)GlcNAc
Outline: as §1

[26] = biological target: Fuc(a1-2)Gal(b1-4)GlcNAc(b1-3)Gal(b1-4)GlcNAc(b1-2)Man(a1-3)[Fuc(a1-2)Gal(b1-4)GlcNAc(b1-3)Gal(b1-4)GlcNAc(b1-2)Man(a1-6)]Man(b1-4)GlcNAc(b1-4)GlcNAc
Outline: as §1

[27] = biological target: Fuc(a1-2)Gal(b1-4)GlcNAc(b1-3)Gal(b1-4)GlcNAc(b1-3)Gal(b1-4)GlcNAc
Outline: as §1

[28] = biological target: Fuc(a1-2)Gal(b1-4)GlcNAc(b1-3)GalNAc
Outline: as §1

[29] = biological target: Fuc(a1-2)Gal(b1-4)GlcNAc(b1-3)[Fuc(a1-2)Gal(b1-4)GlcNAc(b1-6)]GalNAc
Outline: as §1

[30] = biological target: Fuc(a1-2)Gal(b1-4)GlcNAc(b1-3)[Fuc(a1-3)[Gal(b1-4)]GlcNAc(b1-6)]Gal(b1-4)Glc
Outline: as §1

[31] = biological target: Fuc(a1-2)Gal(b1-4)GlcNAc(b1-6)GalNAc
Outline: as §1

[32] = biological target: Fuc(a1-2)Gal(b1-4)GlcNAc6S
Outline: as §1

[33] = biological target: Fuc(a1-2)Gal(b1-4)[Fuc(a1-3)]GalNAc(b1-3)Gal(b1-4)[Fuc(a1-3)]GlcNAc
Outline: as §1

[34] = biological target: Fuc(a1-2)Gal(b1-4)[Fuc(a1-3)]GalNAc(b1-3)Gal(b1-4)[Fuc(a1-3)]GlcNAc(b1-3)Gal(b1-4)[Fuc(a1-3)]GalNAc
Outline: as §1

[35] = biological target: Fuc(a1-2)Gal(b1-4)[Fuc(a1-3)]GlcNAc
Outline: as §1

[36] = biological target: Fuc(a1-2)Gal(b1-4)[Fuc(a1-3)]GlcNAc(b1-2)Man(a1-3)[Fuc(a1-2)Gal(b1-4)[Fuc(a1-3)]GlcNAc(b1-2)Man(a1-6)]Man(b1-4)GlcNAc(b1-4)[Fuc(a1-6)]GlcNAc
Outline: as §1

[37] = biological target: Fuc(a1-2)Gal(b1-4)[Fuc(a1-3)]GlcNAc(b1-2)[Fuc(a1-2)Gal(b1-4)[Fuc(a1-3)]GlcNAc(b1-4)]Man(a1-3)[Fuc(a1-2)Gal(b1-4)[Fuc(a1-3)]GlcNAc(b1-2)Man(a1-6)]Man(b1-4)GlcNAc(b1-4)GlcNAc
Outline: as §1

[38] = biological target: Fuc(a1-2)Gal(b1-4)[Fuc(a1-3)]GlcNAc(b1-3)Gal(b1-4)[Fuc(a1-3)]GlcNAc
Outline: as §1

[39] = biological target: Fuc(a1-2)Gal(b1-4)[Fuc(a1-3)]GlcNAc(b1-3)Gal(b1-4)[Fuc(a1-3)]GlcNAc(b1-3)Gal(b1-4)[Fuc(a1-3)]GlcNAc
Outline: as §1

B1: Epa12 (Candida glabrata) (protein)
chain: MGSSHHHHHHSSGLVPRGSHMLEPDNSLQIFDSFLSNPSKYPLGCSPKITNPKKGLSMELYSYPYRKKGSHPCWDPAYLDPNFPRVGYKKNKLIARVDGVSGDINFNFHPKRQCTPIADYLPPNFNYNEPITTTNFTMLLYGYFKPKVTGLHTFDISADDLLFMNFGAGNAFDCCRRDSTADTFGNYVAWAIWGRRIVRNKLTVRLDKGIYYPLRLFFNNRDYYGQMRLTFKTEHGSERITDFSDYFFSVDDTSEGCPGLITYESECADVKSSTVLETDYITIQAEKE
glycan array binding signal (z-score) (Fuc(a1-2)Gal): -0.548 | glycan array binding signal (z-score) (Fuc(a1-2)Gal(b1-3)GalNAc): -0.309 | glycan array binding signal (z-score) [1]: -0.338 | glycan array binding signal (z-score) [2]: -0.357 | glycan array binding signal (z-score) [3]: -0.222 | glycan array binding signal (z-score) [4]: -0.185 | glycan array binding signal (z-score) [5]: -0.255 | glycan array binding signal (z-score) [6]: -0.283 | glycan array binding signal (z-score) (Fuc(a1-2)Gal(b1-3)GlcNAc): -0.391 | glycan array binding signal (z-score) [7]: -0.248 | glycan array binding signal (z-score) [8]: -0.268 | glycan array binding signal (z-score) [9]: -0.348 | glycan array binding signal (z-score) [10]: -0.349 | glycan array binding signal (z-score) [11]: 0.038 | glycan array binding signal (z-score) [12]: 0.069 | glycan array binding signal (z-score) [13]: -0.355 | glycan array binding signal (z-score) [14]: -0.28 | glycan array binding signal (z-score) [15]: -0.321 | glycan array binding signal (z-score) [16]: -0.158 | glycan array binding signal (z-score) [17]: -0.305 | glycan array binding signal (z-score) [18]: -1.26 | glycan array binding signal (z-score) [19]: -0.259 | glycan array binding signal (z-score) [20]: -0.132 | glycan array binding signal (z-score) (Fuc(a1-2)Gal(b1-4)Glc): -0.329 | glycan array binding signal (z-score) (Fuc(a1-2)Gal(b1-4)Glc6S): -0.08 | glycan array binding signal (z-score) (Fuc(a1-2)Gal(b1-4)GlcNAc): -0.334 | glycan array binding signal (z-score) [21]: -0.329 | glycan array binding signal (z-score) [22]: -0.309 | glycan array binding signal (z-score) [23]: -0.185 | glycan array binding signal (z-score) [24]: -0.325 | glycan array binding signal (z-score) [25]: -0.342 | glycan array binding signal (z-score) [26]: -0.423 | glycan array binding signal (z-score) [27]: -0.389 | glycan array binding signal (z-score) [28]: -0.378 | glycan array binding signal (z-score) [29]: -0.221 | glycan array binding signal (z-score) [30]: -0.252 | glycan array binding signal (z-score) [31]: -0.153 | glycan array binding signal (z-score) [32]: 0.087 | glycan array binding signal (z-score) [33]: -0.28 | glycan array binding signal (z-score) [34]: -0.275 | glycan array binding signal (z-score) [35]: -0.339 | glycan array binding signal (z-score) [36]: -0.305 | glycan array binding signal (z-score) [37]: -0.277 | glycan array binding signal (z-score) [38]: -0.352 | glycan array binding signal (z-score) [39]: -0.387
